assay: soluble on expression in E. coli; label from the status in PepcDB or PDB records

| Sequence | soluble on expression in E. coli |
| --- | --- |
| GEFKGLDSKTFLSEHSMDMKFTYCDDRITELIGYHPEELLGRSAYEFYHALDSENMTKSHQNLCTKGQVVSGQYRMLAKHGGYVWLETQGTVIYNPRNLQPQCIMCVNYVLSEIEKN | soluble |
| MGLLFTPLELRGLRLKNRLAMSPMCQYSATEGGEVTDWHLLHYPTRALGGVGLVIVEATAVLPEGRISPFDLGIWSEDHLPGLRELARRIREAGAVPGIQLAHAGRKAGTARPWEGGRPLGWKVVGPSPIPFAEGYPVPEALDEAGMARVLEAFVEGAKRALRAGFLVVELHMAHGYLLSSFLSPLANRREDAYGGSRENRMRFPLEVARAVREAIPPELPLFVRVSATDWAEGGWGLEDTLAFAERLKALGVDLLDLSSGGVVPGVRVPVAPGFQVPFADAVRKRVGMPTGAVGLLTTPEQAETVLQAGSADLVLLGRVLLRDPYFPLKAAKALGAEAPVPPQYQRAF | soluble |
| MGSDKIHHHHHHGKPIELTPLPLLKDVPSSEQPELFLKKLQQCCVIFDFMDTLSDLKMKEYKRSTLNELVDYITISRGCLTEQTYPEVVRMVSCNIFRTLPPSDSNEFDPEEDEPTLEASWPHLQLVYEFFIRFLESQEFQPSIAKKYIDQKFVLQLLELFDSEDPRERDYLKTVLHRIYGKFLGLRAFIRKQINNIFLRFVYETEHFNGVAELLEILGSIINGFALPLKAEHKQFLVKVLIPLHTVRSLSLFHAQLAYCIVQFLEKDPSLTEPVIRGLIKFWPKTCSQKEVMFLGELEEILDVIEPSQFVKIQEPLFKQIAKCVSSPHFQVAERALYYWNNEYIMSLIEENSNVILPIMFSSLYRISKEHWNPAIVALVYNVLKAFMEMNSTMFDELTATYK | not soluble |
| MHYPEPLSKLIDSFMKLPGIGPKTAARLAFHVLAMKEDTVLEFAKALVDVKRHIHYCTICGHITDTDPCYICKDERRNRTTICVVQDPKDVIAMERMKEYNGLYHVLHGAISPMEGIGPEDIKIAELLTRLQDETVQEVILATDPNIEGEATAMYISRLLKPTGIKVTRIAHGLPVGGDLEYADEVTLSKALEGRREL | not soluble |
| MPFGNTHNKWKLNYSAAEEFPDLSKHNNHMAKALTLDIYKKLRDKETPSGFTLDDIIQTGVDNPGHPFIMTVGCVAGDEECYEVFKDLFDPVIEDRHGGYKPTDKHKTDLNQENLKGGDDLDPNYVLSSRVRTGRSIKGIALPPHCSRGERRLVEKLCIDGLATLTGEFQGKYYPLSSMSDAEQQQLIDDHFLFDKPISPLLLASGMARDWPDGRGIWHNNDKTFLVWVNEEDHLRVISMQKGGNMKEVFRRFCVGLKKIEDIFVKAGRGFMWNEHLGYVLTCPSNLGTGLRGGVHVKIPHLCKHEKFSEVLKRTRLQKRGTGGVDTAAVGSIYDISNADRLGFSEVEQVQMVVDGVKLMVEMEKRLENGKSIDDLMPAQK | soluble |
| PIYVRFEVPEDLAEKAYEAVKRARETGRIKKGTNETTKAVERGLAKLVVIAEDVDPPEIVMHLPLLCDEKKIPYVYVPSKKRLGEAAGIEVAAASVAIIEPGDAETLVREIVEKVKELRAKAGV | soluble |
| SYQPTPEDRFTFGLWTVGWQGRDPFGDATRPALDPVETVQRLAELGAHGVTFHDDDLIPFGSSDTERESHIKRFRQALDATGMTVPMATTNLFTHPVFKDGGFTANDRDVRRYALRKTIRNIDLAVELGAKTYVAWGGREGAESGAAKDVRVALDRMKEAFDLLGEYVTSQGYDIRFAIEPKPNEPRGDILLPTVGHALAFIERLERPELYGVNPEVGHEQMAGLNFPHGIAQALWAGKLFHIDLNGQSGIKYDQDLRFGAGDLRAAFWLVDLLESAGYEGPRHFDFKPPRTEDIDGVWASAAGCMRNYLILKERAAAFRADPEVQEALRASRLDELAQPTAADGVQELLADRTAFEDFDVDAAAARGMAFERLDQLAMDHLLGAR | soluble |
